Results published in patent US20130040882A1, “USE OF FIBROBLAST GROWTH FACTOR FRAGMENTS” (NOVARTIS AG, priority 2003, published 2013).
For part of its entries the source gives two or more results. The list is limited to them. There may be further records. The records of an entry read as repeated measurements (runs, samples, wells or individuals).

Test: Salmon calcitonin/PTS893 monkey study: haematology;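 also: haematology parameters were measured in blood collected from a peripheral vein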
Type: in vivo, cynomolgus monkeys (Macaca fascicularis)
Set-up: unit not given here
Conditions: females

Substance: Leu8, Asp10, Lysll, A1a16, G1n18, Thr33, A1a34 human PTH 1-34 [PTS893, Leu8, Asp10, Lysll, A1a16, G1n18, Thr33, A1a34 human PTH 1-34 [hPTH(1-34)]]
- Haematology B (d7): 0.06 and 0.04 [columns of one line]
- Haematology HB (d7): 11.7 and 12.1 [columns of one line]
- Haematology MCV (d7): 67 and 68 [columns of one line]
- Haematology WBC (d7): 18.4 and 12.3 [columns of one line]
- Haematology B (d13): 0.03 and 0.04 [columns of one line]
- Haematology MCV (d13): 67 and 66 [columns of one line]
- Haematology WBC (d13): 13.2 and 10.1 [columns of one line]
- Haematology HB (d−8 (before dosing)): 13.4 and 12.9 [columns of one line]
- Haematology MCV (d−8 (before dosing)): 63 and 64 [columns of one line]
- Haematology WBC (d−8 (before dosing)): 10.1 and 14.3 [columns of one line]
